Experimental findings from the supplement of paper PMC11417369 are described below.

The other results are listed elsewhere or left out.

The subject of the test is PF3D7_0420300 AP2 domain 1 (GST-tagged). The test is described as follows: gcPBM binding intensity (ln(normalized median fluorescence intensity)); higher = stronger DNA binding. The method in brief: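 The binding buffer was 1× PBS containing 1% milk, 0.2 mg/ml BSA, 0.5% salmon testes DNA and 0.03% Triton X-100. In it, GST-tagged P. falciparum DNA-binding domains expressed in E. coli were applied for 1 h to an Agilent 4 × 180k array of primer-extended double-stranded 36-bp intergenic genomic probes plus negative controls. Binding intensity, read with Alexa488 anti-GST antibody and a 488 nm scan, is the highest Masliner-normalised natural-log median intensity across replicate spots of either probe orientation.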
Take “ATATATATATATGTTTATTTATTTGAACGATTGTGG [CACACA_negctrl_site828]”: the “gcPBM binding intensity (ln)” value was 9.11.

Turning to “GACTCTTAAAAAATTTGTACCCACATAAATAATATA [XGTACX_site4313]”, the “gcPBM binding intensity (ln)” value is 9.08.

“TATATATCCTCTGAATGTACTTGTTTAATAATGTAG [XGTACX_site4332]”: the “gcPBM binding intensity (ln)” value turned out to be 9.18.

In the case of “TGTGTAATATTCTGTTGTACATAACTCATAAATAAA [XGTACX_site5308]”, the “gcPBM binding intensity (ln)” value was 9.08.

Take “ATAATATAATATATATGTACACATCCTTTTTGTGTA [XGTACX_site2879]”: the “gcPBM binding intensity (ln)” value came out at 9.28.

On to “TAAAAGTAAAAAGGTAGTACCTAAATAATATATATA [XGTACX_site8399]”, for which the “gcPBM binding intensity (ln)” value is 9.24.

As to “ATAAGATAGGCATATACACACATTTATTTACAGATA [CACACA_site5754]”, the “gcPBM binding intensity (ln)” value was 9.61.

As for “GAATAAAAAATTGGCACACATAAATATATGGATATA [CACACA_site3047]”, the “gcPBM binding intensity (ln)” value turned out to be 9.46.

For the sequence “TTCAACATATTAAAAAGTACAGAATATAACATTATA [XGTACX_site1361]”, the “gcPBM binding intensity (ln)” value came out at 9.29.

For the sequence “TATACGTGAATGACAGTGCATTTCAAAAGTATAAAA [GTGCAC_site9887]”, the “gcPBM binding intensity (ln)” value was found to be 9.16.

With “TATATATATATACCAACACACATACATATATATATA [CACACA_site8530]”, the “gcPBM binding intensity (ln)” value worked out at 9.68.

As for “TAAAAAATAAAAATTGCACACTAAAAAATTACGCAC [CACACA_site9129]”, the “gcPBM binding intensity (ln)” value stood at 9.48.

For the sequence “AAGTATAAATTAAAATGTACTTATAAAAAAAAAGAA [XGTACX_site7028]”, the “gcPBM binding intensity (ln)” value amounted to 9.35.

For the sequence “TGTCACATAATTTATGCACACAATGATTATGCTTAA [CACACA_site2358]”, the “gcPBM binding intensity (ln)” value came to 9.28.

For “TATGTATGTATGTATGCATGTGTAACACCTAAATAT [TGCATGCA_site361]”, the “gcPBM binding intensity (ln)” value came to 9.43.

As for “ACATATATTGTACATACACACCTATATAAATATCCT [CACACA_site7503]”, the “gcPBM binding intensity (ln)” value was 9.57.

Regarding “CCATATTTCATTAATGAACACACAAAGAGGTATATA [CACACA_site8431]”, the “gcPBM binding intensity (ln)” value was 9.4.

As for “AAAAATAAAATATATACACACATATATATATATATA [CACACA_site2943]”, the “gcPBM binding intensity (ln)” value was 9.31.

For “TTTTAAATTGGAGTGGGCAGATTGATATTATTCTTC [GTGCAC_negctrl_site191]”, the “gcPBM binding intensity (ln)” value turned out to be 9.14.

Consider “ACATATATATATATGTGTACATATTTATACAACAAT [XGTACX_site6660]”, for which the “gcPBM binding intensity (ln)” value came out at 9.44.

Turning to TTTTTAATTTTGTGGGTGCTTTCGTGTTATTATATA, the “gcPBM binding intensity (ln)” value is 9.66.

For “TATTATAATAAACCTATACACACATAAATAAATAAA [GTGCAC_negctrl_site627]”, the “gcPBM binding intensity (ln)” value came out at 9.73.

In the case of “AATGTCAGTATGCGAGGTACACGTATAAAAATTACA [XGTACX_site4109]”, the “gcPBM binding intensity (ln)” value came out at 9.34.

In the case of “AGGAAATTTGTTATTGCACACAAATTTTTCTTTTTT [CACACA_site8732]”, the “gcPBM binding intensity (ln)” value was 9.31.

For “TACATAAATTAAAACACACACACACTAGAAAAAAAA [CACACA_site5278]”, the “gcPBM binding intensity (ln)” value came to 10.1.

As to “TTTTACTAAATATATACACACATTATACAGATATAT [CACACA_site5765]”, the “gcPBM binding intensity (ln)” value stood at 9.56.

As for “TATCCTAATGCTACCACACACACAAAAACAAATAAT [CACACA_site2609]”, the “gcPBM binding intensity (ln)” value came out at 9.9.

For the sequence “AATATTTATGGGTGCACACAAACATACATATATATA [CACACA_site3395]”, the “gcPBM binding intensity (ln)” value stood at 9.55.

On to “CCTTACTTCTTATAAAGTACCCAATGATATACATTA [XGTACX_site1554]”, for which the “gcPBM binding intensity (ln)” value was 9.05.

Consider “ATGTTGAAAGGAAAAAATAATAAAATCGATATATTA [CACACA_negctrl_site549]”, for which the “gcPBM binding intensity (ln)” value came to 9.18.

In the case of “AAAAAAAAGAATAGAGCATGCAAAATATATGAAATA [TGCATGCA_site933]”, the “gcPBM binding intensity (ln)” value was 9.62.

In the case of “TTTTAATGTATATTTTGTACGTATTATTAATATTCG [XGTACX_site8453]”, the “gcPBM binding intensity (ln)” value came out at 9.14.

For “ATCTCTACAAAGTGCACACACGTAAAAACATATATA [CACACA_site6046]”, the “gcPBM binding intensity (ln)” value was 9.58.

For the sequence “ATTTTCCTTTAATTATGTACTTATGTAATAATAATG [XGTACX_site2612]”, the “gcPBM binding intensity (ln)” value was determined as 9.28.

As to “GTATCATAAAAGTATACACACATACATACATATGTA [CACACA_site5456]”, the “gcPBM binding intensity (ln)” value amounted to 9.49.

Turning to “GCACACATATAATTAAACATATATTTGTATTATTTT [GTGCAC_negctrl_site327]”, the “gcPBM binding intensity (ln)” value worked out at 9.43.

“TGTATGATTATGTTGTGTACGTAAAATATGAAAAAT [XGTACX_site1720]”: the “gcPBM binding intensity (ln)” value was determined as 9.45.

“ATTAGTGACATTATTACACACAAAAGAAAACAGAAA [CACACA_site3984]”: the “gcPBM binding intensity (ln)” value is 9.85.

Turning to TGAATCTATATACAGGTGCGTAAAAAATAACTTATA, the “gcPBM binding intensity (ln)” value stood at 9.1.

With “CAAGAATTAAAATAAAGTACAAAAGTAACAACTTTT [XGTACX_site1474]”, the “gcPBM binding intensity (ln)” value stood at 9.17.

Regarding “AAAAAAAAGGAAAAGGGTACAAAACCATACTTACAT [XGTACX_site4783]”, the “gcPBM binding intensity (ln)” value was found to be 9.43.

Turning to “TAAAGATATAAATGCACACGTATTAAAAAAAAAATA [CACACA_site952]”, the “gcPBM binding intensity (ln)” value was determined as 9.46.

As to “TTATCATTACATGAGTGTACATTATTATATTTTTTT [XGTACX_site7845]”, the “gcPBM binding intensity (ln)” value turned out to be 9.44.

With “ATATATTTTTTTTTTTGTACGTATATTTATATAATT [XGTACX_site8719]”, the “gcPBM binding intensity (ln)” value is 9.55.

Turning to “GAAAGAAAGAAAGAAAGTACATATAAAAATATACAT [XGTACX_site7299]”, the “gcPBM binding intensity (ln)” value stood at 9.11.

For “ATGATAGTAATTAATAGTACTTTTTTTGATACAAAA [XGTACX_site4288]”, the “gcPBM binding intensity (ln)” value worked out at 8.75.

On to “TCGTGTTTTAAAAAAATGAAGAAAAGTAAAAAAAAA [XGTACX_negctrl_site23]”, for which the “gcPBM binding intensity (ln)” value amounted to 8.98.

Turning to “TAATATGAATATATATGTACATACAATTTGTTATAT [XGTACX_site5815]”, the “gcPBM binding intensity (ln)” value came to 9.25.

For the sequence “ATTAAATGTATGACTTGTACATAAAATAAAAAAAAA [XGTACX_site6555]”, the “gcPBM binding intensity (ln)” value worked out at 9.12.

For the sequence “TATATATAATATATATGTACATAATATATTTTATAT [XGTACX_site2909]”, the “gcPBM binding intensity (ln)” value stood at 9.07.

On to “TAAAACACTCATGGCACACATAAAACATTTTTATGA [CACACA_site3574]”, for which the “gcPBM binding intensity (ln)” value was 9.3.

Turning to AGTATAAGCATTATTGTGCACATAATTATAATTTTT, the “gcPBM binding intensity (ln)” value is 9.27.

In the case of “AGTTTAAATTAAATTACACACTACGAATAATATATT [CACACA_site7811]”, the “gcPBM binding intensity (ln)” value turned out to be 9.36.

With “AATAATGAAACAGGAAAAAAATATTGTTAAAATGTA [XGTACX_negctrl_site400]”, the “gcPBM binding intensity (ln)” value came out at 9.51.

Take “TATATATTAATAAATAGTACCCGTGGAATTTATATT [XGTACX_site5855]”: the “gcPBM binding intensity (ln)” value turned out to be 9.19.

In the case of “GTTGCAATTAACACTAGTACATATAAGTAGTTTATT [XGTACX_site2063]”, the “gcPBM binding intensity (ln)” value was 9.24.

“ATTGTTCTCCAAAAGTGTACGTATTATTTTTCTGGA [XGTACX_site1404]”: the “gcPBM binding intensity (ln)” value was 9.31.
